# Results published in publication PMC4336329 (PLoS ONE, 2015).
# In all, about 310,000 compounds went through this assay and about 14,000 (4.5%) showed an effect of 50% or more. The effect is printed as a negative number. The list shows a part of the results.
# Target: human ether-à-go-go-related gene (hERG) potassium channel (human, UniProt Q12809)
# Assay: primary screen, population patch clamp on CHO cells stably expressing hERG
# 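Also: peak tail current of the secondary pulse compared with the same well before compound.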
# Sequence of human ether-à-go-go-related gene (hERG) potassium channel (Q12809 whole entry, looked up): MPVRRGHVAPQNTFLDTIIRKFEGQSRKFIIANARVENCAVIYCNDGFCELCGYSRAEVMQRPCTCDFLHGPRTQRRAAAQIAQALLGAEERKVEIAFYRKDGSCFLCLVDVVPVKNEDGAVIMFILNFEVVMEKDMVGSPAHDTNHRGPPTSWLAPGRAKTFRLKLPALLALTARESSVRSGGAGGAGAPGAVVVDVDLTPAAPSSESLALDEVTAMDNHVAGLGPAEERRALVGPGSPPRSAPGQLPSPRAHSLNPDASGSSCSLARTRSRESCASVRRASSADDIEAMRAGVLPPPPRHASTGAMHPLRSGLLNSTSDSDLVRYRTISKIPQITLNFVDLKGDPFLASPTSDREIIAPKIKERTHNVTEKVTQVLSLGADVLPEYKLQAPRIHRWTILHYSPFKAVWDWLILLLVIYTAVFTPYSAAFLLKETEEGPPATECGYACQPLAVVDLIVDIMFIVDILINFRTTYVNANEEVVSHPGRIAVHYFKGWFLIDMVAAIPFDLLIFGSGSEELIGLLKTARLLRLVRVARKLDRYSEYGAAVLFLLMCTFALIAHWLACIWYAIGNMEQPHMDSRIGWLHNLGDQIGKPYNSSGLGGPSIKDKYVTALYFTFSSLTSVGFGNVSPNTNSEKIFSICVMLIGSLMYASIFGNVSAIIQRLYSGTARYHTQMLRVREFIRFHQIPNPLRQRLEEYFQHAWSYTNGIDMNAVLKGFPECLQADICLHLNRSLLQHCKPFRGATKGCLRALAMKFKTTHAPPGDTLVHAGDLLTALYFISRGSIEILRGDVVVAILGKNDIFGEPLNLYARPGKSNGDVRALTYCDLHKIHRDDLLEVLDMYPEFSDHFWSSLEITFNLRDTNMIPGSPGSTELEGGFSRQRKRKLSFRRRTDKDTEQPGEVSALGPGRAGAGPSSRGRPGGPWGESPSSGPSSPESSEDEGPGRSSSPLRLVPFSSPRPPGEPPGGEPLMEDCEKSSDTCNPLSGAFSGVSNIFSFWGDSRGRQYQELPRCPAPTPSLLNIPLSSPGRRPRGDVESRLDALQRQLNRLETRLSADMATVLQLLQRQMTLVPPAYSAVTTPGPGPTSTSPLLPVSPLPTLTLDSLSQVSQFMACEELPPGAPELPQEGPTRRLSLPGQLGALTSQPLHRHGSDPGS
row,Compound,"hERG current change (%, negative = inhibition) at 10uM [%]"
1,Cc1ccc(CNc2cc(-c3nn4c(C)nnc4s3)ccc2C)s1,12.2
2,CSc1ccccc1NC(=O)C1CC(c2ccccc2Cl)=NO1 (centres unmarked),15.7
3,NC(=O)NCc1cccnc1,22.2
4,O=C(CNS(=O)(=O)c1ccc(F)c(Cl)c1)NCCc1ccccc1,0.875
5,O=C(CC1C(=O)NCCN1Cc1ccoc1)NCCc1ccc(Cl)cc1 (centres unmarked),-53.7
6,COc1ccccc1NC(=O)NC1(C(=O)N2CCC(O)CC2)CCCCC1,7.42
7,COc1ccc(C(=O)c2coc3ccc(O)c(CN4CCCC4)c23)cc1,-73.4
8,CCOC(=O)c1cccc(N2C(N)=NC(N)=NC2(C)C)c1.Cl,-1.9
9,CC1=C(C(=O)Nc2ccccc2)C(c2ccncc2)C(C#N)=C(SCC(=O)NC2CC2)N1 (centres unmarked),-1.72
10,COc1ccc(CCNS(=O)(=O)c2cc3c4c(c2)CCN4C(=O)CC3)cc1,-20.2
11,CCOCc1nnc(NC(=O)c2ccco2)s1,-24.6
12,Cc1c[nH]c2ccccc12,14.9
13,Cc1ccc(NC(=O)Cn2sc3nc(C)cc(C)c3c2=O)c(Cl)c1,9.33
14,CC(C)(C)c1ccc(C(=O)CS(=O)(=O)c2ccccc2)cc1,-21.9
15,Cc1cnc(C)c(N2CCC(C(=O)NCc3cccs3)CC2)n1,-14.3
16,CCc1ccc(NC(=O)CSc2ccc(-c3ccco3)nn2)cc1,-16.6
17,COc1ccc(CCNC(=O)c2ccccc2OCc2ccccc2)cc1,-6.68
18,Cc1sc2nc(CN3CCCC3)nc(N3CCC(C(N)=O)CC3)c2c1C,-3.64
19,O=C(Nc1ccccc1Br)C1CC(=O)N(c2ccc3c(c2)OCCO3)C1 (centres unmarked),-8.6
20,Cc1nn(C)cc1C(=O)Nc1ccccc1Br,16.7
21,O=C(CSc1nnc(-c2cccs2)o1)N1CCc2ccccc21,-10.5
22,COC(=O)c1ccccc1Nc1cc(C)nc2nc(C)nn12,-20.4

row,Compound,"hERG current change (%, negative = inhibition) at 10uM [%]"
1,CCN(CC)CCC(c1ccc(OC)cc1)c1c(O)cc(OC)cc1OC (centres unmarked),-66.4
2,NS(=O)(=O)c1ccc(CNC(=O)c2cccc(Oc3ccccc3)c2)cc1,19.7
3,CCn1c(=O)c(CCC(=O)NCCN2CCOCC2)c(C)c2c(C)nn(-c3ccccc3)c21,-15.1
4,Cc1ccc(C(=O)Nc2ccc3cn[nH]c3c2)cc1S(=O)(=O)N1CCCCC1,-3.13
5,CCOC(=O)c1nnn(-c2nonc2-n2cccc2)c1CN1CCCCC1,-13.4
6,O=C(NCc1ccc2c(c1)OCO2)c1ccc(-c2ccc(Cl)cc2)o1,0.168
7,COc1cc(S(=O)(=O)N2CCOCC2)ccc1NC(=O)CSc1nnc(N)s1,5.21
8,O=C(COC(=O)c1ccc(F)c(S(=O)(=O)N2CCOCC2)c1)NC1CC1,-17.4
9,O=c1c2ccccc2cnn1Cc1ccc(Br)cc1F,12
10,Cc1nc2cc(NC(=O)C3COc4ccccc4O3)ccc2s1 (centres unmarked),3.86
11,O=C(COC(=O)C(Cc1ccccc1)NC(=O)c1ccc(Cl)cc1)c1ccc(Cl)cc1 (centres unmarked),-27.3
12,Cc1cc(C(=O)CSc2nnc3ccccn23)c(C)n1-c1ccccc1,-25.6
13,Cc1cc(C(=O)N(C)CC(=O)Nc2ccc(Cl)c(C(F)(F)F)c2)no1,19.1
14,Cn1c(SCc2nc(-c3ccc(Br)cc3)no2)nnc1-c1ccco1,-49.6
15,Cc1ccc(NC(=S)NNC(=O)C2CC2c2ccc(C)cc2)cc1 (centres unmarked),-7.77
16,COc1ccc(-n2c(SCC(=O)Nc3sc4c(c3C#N)CCCC4)nnc2-c2ccc(O)cc2)cc1,-10.7
17,C=CCN(c1ccccc1)S(=O)(=O)c1cccc(C(=O)NNC(=O)c2ccncc2)c1,-7.43
18,Cc1ccc2c(c1)-c1c(cnn1CC(=O)N1CCCN(Cc3ccccc3F)C1)CO2,-21.5
19,CN(C)c1ccc2c(c1)N=C(c1ccco1)OP2(=S)N1CCOCC1 (centres unmarked),8.31
20,COc1cccc(OC)c1OC(=O)/C=C/c1ccc(C)o1,6.2
21,Cn1cccc1C(=O)NCCc1ccc(Cl)cc1,-1.6
22,CNCCC1Sc2ccccc2Oc2ccccc21.O=C(O)C(=O)O (centres unmarked),-37.9
